The results in this text go back to the RNAGym collection of RNA variant scans (doi:10.7554/elife.90254).

B1: LINE1-mini (parent)
chain: GGCAGAGCUCAACACAGCGUGGCAAAGUGGCUGUGGCUAGACUGCC

The source gives no read counts; variants with many changes may rest on few reads.

The variants in the series derive from B1. Briefly: self-cleavage, relative activity (ratio to wild type); higher = more cleavage; in vitro, sequencing; the parent is a self-cleaving ribozyme.
Take AGCAGUGCUCAACACAGGGUGGCAAAGUGGCUGUGGUUAGACUGCC: the self-cleavage stood at 0.07.
The same measure for AGCAGAGCUCAACACGGCGUGGCAAAGUGGCUCUGGCUAGACUGAC: 0.01.
As to AGCAGCGCUCAACACAGCCUGGCAAAGUGGCUGUGGCUCGACUGCC, the self-cleavage turned out to be 0.11.
Turning to AGCAGAGCUCAACGCAGCGUGGCAAAGUGACUGUGGCUCGACUGCC, the self-cleavage is 0.04.
The value for AGCAGAGCUCAACACUGCGUGGCAAAGUGGCUGUGCCUAGACUGCC was 0.11; that for AGCAGAGCUCAACCCAGCGUGGCAAAGUGGCUUUGGCUAGACUGCC was 0.02.
The value for AGCAGAGCUCGACACAGCGUGGCAAAGUGGCCGUGGCUAGACUGCC was 0.04; that for AGCAGAGCUCAACUCAGCGAGGCAGAGUGCCCGUGGCUAGACUGCC was 0.07.
With AGCAGAGCUCAGCACAGCGUGGCAAAGUGGCAGUGGCGGCACUGCC, the self-cleavage amounted to 0.02.
The value for AGCAGAGCUCAGCACUGCGUGUCAAAGUGGCUGUGGCUAGACUGCC was 0.05; that for AGCAGCGCUCAACACAGAGUGGCACAGUGGCUGUGGCUAGACUGCC was 0.03; that for AGCUGAGCUCAACAUAGCGUGGCAAAGUGGCUGGGACUAGACUGCA was 0.07.
With AGCUGAGCUCGACACAGCGGGGCAAAGUCGCUGUGGCUAGACUGCC, the self-cleavage turned out to be 0.04.
The value for AGCAGUGCUCAACGCAGCGUGGCAAAGUGGCUGUGGCUAGAAUGCC was 0.1; that for AGCAGCGCUCAACACACCGUGGCAGAGUGGCUGUGGAUAGACUGCC was 0.02.
The value for AGCAGCGCUCAACACAGCGUGGCAAAGUGGCUGUAGCUAUACUGCC was 0.05; that for AGCAGAGCUCGACACCGCAUGGCAAAGUGGCUGUGGGUAGACUGCC was 0.06; that for AGCAGAGCUCAACGCAGCCUGGCAAAGUGGCUGUGGCUAGACUGCC was 0.09.
The same measure for AGCAGAGCUCCACACAGCGGGGCAAAGUGGCUCUGGCUAGACUGCC: 0.02; for AGCUAAGCUCAACAGGGCGUGGCAAAGUGGCUGUGGCUAGACUGCC: 0.04.
As to AGCAGAGCUCAACACCACGUGGCAAAGUGGCUGUGGCUAGACUGCC, the self-cleavage was 0.14.
Take AGCCGAGCUCAACACAGCGUGGCAAAGUGGCUGUGGCUAAACUGCC: the self-cleavage was 0.07.
The same measure for AGCAGAGCUCAACUCAACGUGGCAAAGUGGCUGUGGCUAGACUGCU: 0.06.
The same measure for AGCAGUGCUCAACACAGCGCGGCAAAGUGGCUGUGGCUAGACUGCC: 0.43; for AGCAGAGCUCAACACCGCCUGGUUAAGUGGCUGUGGCUAGACUGCC: 0.1.
The same measure for AGCAGAGCUCAACCCAGCGUGGCAAAGUGGGUGUGGCUAGACUGCC: 0.01; for AGCAGAGCUCAACACGGCGUGGCAAAGUGGCUGUGGCUAGAAUGCC: 0.04; for AGCAGAGCUCCACACAGCUUGGAAAAGUGGCUGUAGCUAGACUGCC: 0.01.
AGCAGAGCUCAACACGGCGUGGCAAAGUGGAUGUGGCUAGACUGCC: the self-cleavage amounted to 0.04.
The same measure for AGCAGUGCUCAACACAGCGUCGUAAAGUGGCUGUGGCUAGACUGCC: 0.28; for AGCGGAGCUCAAAACAGCGUGGCAAAGUGGCUGCCGCUAGACUGCC: 0.04; for AGCAGAGCUCAACGCAGCGUGGCAAAGUGGGUGUGUCUCGACUGCC: 0.09.
AGCGGAGCUUAACACAGCGUGACAAAGUGGCUGGGGCUAGACUGCC: the self-cleavage turned out to be 0.13.
On to AGCAGAGCUCAACUCAGCGUGGCAAAGUGGAUGAGUCUAGACUGCC, for which the self-cleavage stood at 0.07.
The value for AGCAGGGCUCAACACAGCGUGGCAAAUUGGCUGCGGCUAGACUGCC was 0.04; that for AGCAGAGCUCGACACAGCGUGGCAAAGCGGUUGUUGCUAGACUGCC was 0.05.
Regarding AGCAGAGCUCAUCACAUCUUGGCAAAGUGGCUGUGGCUGGACUGCC, the self-cleavage came to 0.01.
The value for AGCAGAGCUCAACACCGCGUGGCAAAGUGGCAAUGGCUAGACUGCC was 0.05; that for AGCAGAGCUCAACUCAGCGUGGCAAAGUGCCUGUUGCUAGACUACC was 0.14; that for AGCAGAGCUCAGCACAGCGUGGCAAAGUGGCAGUGGCUAAACUGCC was 0.06.
The same measure for AGCAGAGCUCAUCACAGCGUGGCAGACUGGCUGUGGCUUCACUGCC: 0.04.
The value for AGCAGAGCUCAACUCAGCGUGGCAAAGUGGCUGUGGCUCGACUGCC was 0.08; that for AGCGGUGCGCAACAAAGCGUGGCAAAGUGGUUGUGGCUUGACUGCC was 0.15.
Take AGCAGCGCUCAACACAGCGUGUCAAAGUGGCUGGGGCUAGACUGCC: the self-cleavage was determined as 1.27.
The value for AGCAGAGCUCAUCACAGCGUGGCAAAGUGGUUGUGGCUAGACUGCA was 0.41.
The same measure for AGCAGCGCUCAACACAGCUUGGCAAAGUGGCUGUGGCUAGACUGCC: 0.17.
The value for AGCAGAGCUCAACCCACCGUGGCAAAGUGGCUGUGGCUAGACUGCC was 0.04; that for AGCAGAGCUCAGCACAGCGUUGCAAAGUGGCUGUGGCUAGACUGCC was 0.02.
As to AGCUUAGCUCGACACCUCGUUGCAAAGUGGAUGUGGCUAGACUGCC, the self-cleavage came to 0.03.
Consider AGCAGAGCUCAACACUGCAUGGCAAAGUGGCUGUGGCUCGAGUGCU, for which the self-cleavage stood at 0.02.
In the case of AGCCGAGCUCAUCACAGCGGUGCAAAGUGGCUGUGGCUAGACUGCC, the self-cleavage was found to be 0.24.
The value for AGCCGAGCUCAACAAAGCGUGGCACAGUGGCUGUGGCUAGACUGCC was 0.05; that for AGCAGAGCUCAACACCGCGUGGCAAAGUGGCUGUGGCUAGACAGGC was 0.03.
The value for AGCAGAGCUCAACACCGCGUGGUAAAGUCGCUGUGGCUAGACUGCC was 2.24; that for AGCAGAGCUCCACACAGCGUGGCAAAGUGGCUGUGGCCAGACUGCC was 0.08; that for AGCGGAGCUCAACACAGCGUGGCAAAGUGGUUGUGGCUAGACAGCC was 0.04.
The value for AGCAGGGCUCAACACAGCUUGGCAAAGUGGCUGUGGCUAGACUGUC was 0.26; that for AGCAGAGCUCAGCACAGCGUGGCAAAAUGGCUGUGGCUAGACAGCC was 0; that for AGCCGUGCUCAACACAGCGUGGCAUAGUGGCUGUUGCUAAACUGCC was 0.18.
For AGCAGUGCUCAAAACAGCGUGGCAAAGUGGCUGUCGCAAUACUGCC, the self-cleavage was found to be 0.02.
The value for AGCCUAGCUCAACACAGCGUGGCAAAGUGGCUGUGGCUAGACUGCC was 0.1.
The same measure for AGCCGAGCUCAACACAGCGUGGCAAAGUGGCUGUGGCUUGACUGCC: 0.1; for AGCAGAGCUCACCACAGCUUGGCAAAGUGGCUGUGGCCAGAGUGCC: 0.03; for AGCAGAGCUCACCACAGCGUGGCAAAGUGGCUGGGGAUGGACUGCG: 0.03.
The same measure for AGCAGCGCUCAACACAGCGUUGCAAAGUGGCCGUGGCUAGACUGCC: 0.11; for AGCGGAGCUCAACACAGCGUGGCAAAGUGGCUGGGCCUAGACUGCC: 0.01.
Turning to AGCAGAGCUCAUAACAGAGUGGCAAUGUGGCUGUGGCUAGCCUGCC, the self-cleavage turned out to be 0.06.
The same measure for AGCCGAGCUCAACACAGCUUGGCAAAGUGGCUGUGGCUAGACUGCC: 0.06.
The same measure for AGCAGCGCUCAACACAGCGUGGCAAAGUGGCUGUGGCUAGGGUGCC: 0.05.
For AGCAGAGCUCCACACAGCGUGGCAAAGUGGCUUUGGCUAGACUGCC, the self-cleavage was 0.02.
The value for AGCAGAGCUCAACUCAGCGUGGCAAAGUGGGUGUGGCUGGACUGCC was 0.24; that for AGCGAACCUCAACACAGCGUUGCAAAGUGGCUGUGGCUAGACUGCC was 1.49; that for AGCAGAGCUCAACACCGCGUGGCAAAGUGGCUGUGGCUAGGCUGCC was 0.04.
The same measure for AGCAGAGCUCAACCCAGUGUGGCAAAGUGGCUGUUGCUAGACUGCC: 0.03; for AGCAGAGCUCCACACAGCGUGGCAAGCUCGGUGUGGCUAGACUGCC: 0.02.
The same measure for AGCUGAGCUCAACACAGCGUGGAAAAGUGGCUGUGGCUAGACUGCC: 0.49; for AGCGGAGCUCAACACAGCGUGGCAACGUGGCUGUGGCUAGACUGCC: 0.08.
As to AGCAGAGCUCAACACUGUGUGGCAAAGUGGCUGUUGAAAGACUGCC, the self-cleavage was 0.01.
As to AGCAGAGCUCACCACAGGGUGGCAAAGUUGCUGUGGCUAGACUGCC, the self-cleavage was determined as 0.01.
The same measure for AGCAGAGCUCUACACAGCGUGGCAAAGUGGCUGUGGCUACACUGCC: 0; for AGCGGAGCUCAACACAGCGUGGCAAAGUGGCUGUGGCUAGAAUGCC: 0.06.
The value for AGCGGAGCUCAACACAGCGUGGCAAGGUGUCUGUGGCUAUACUGCC was 0.07; that for AGCAGAGCUCUACACUGCGUGGCAAAGUGGCUGUGGCUAGACUGCC was 0.1.
The same measure for AGCAGAGCUCAUCACAGCGUGGCAAAGUGGCUGUGGUUAGACUGCC: 0.01.
As for AGCAGAGCUCAGCACAGCGUGGCAAAGUGGCUGUGGCUAGACUGCA, the self-cleavage is 0.1.
With AGCAGGGCUCAUCCCAGCGUGGCAAAGUGGCUGUGGCUAGACUGCC, the self-cleavage is 0.02.
The value for AGCUGCGCUCAACACAGCGUGGCAAAGUGGCUGUGGCUAGAAUGCC was 0.02; that for AGCAGUGCUGAACACAGCGUGGCAAAGUAGCUGUGGCUAGACUGCC was 0.17; that for AGCUGAGCUCAACAUAGCGUGGCAAAGAGGCUGUGGCUAGACUGCC was 0.13.
The value for AGCAGAGCUCAACUCAGCGGGGCAAAGUGGCUGCGGCUAGACUGCC was 0.1; that for AGCGGAGCUCAACAUAGCGUGGCAAAGUGGCUGUGGCUAGACUGCC was 0.12.
The value for AGCAGAGCUCACCACAGCGUGGCAAAGUGGCUGUGGAUAGACUGCC was 0.01; that for AGCAGAGCUCCACACAGAGUGGCAAAGUUGCUGUGGCUAGACUGCC was 0.06; that for AGCAGCGCUCAUCAUAGCAUGGCAAAAUGGCUGUUGCUAGACUGCC was 0.08.
For AGCAGGGCUCAACACAGCGGGGCAGAGUGGCUGUGGCUACACUGCU, the self-cleavage was found to be 0.04.
With AGCAGAGCUCAACACUGCGUGGCAAUGUGGCUGUGGCUAGACUGCC, the self-cleavage was determined as 0.09.
Regarding AGCAGAGCUCAACCCAGCGUCGCAAAGUGGCUGUGGCUACACUGCC, the self-cleavage was 0.01.
The value for AGCAGAGCUCAGCACAGCGUGUGAAAGUGGCUGUGGCUAGACUGCC was 0.02.
Consider AGCGGCGCUUAACACAGCGUGACAAAGCGGCGGUGGCUAGACUGCC, for which the self-cleavage was determined as 0.04.
The same measure for AGCAGUGCUCAACAUAGCGUGGAAAAGGGGCUGUAGCUAGACAGCC: 0.16; for AGCAGAGCUCAGCACAGCGUGGCAAAGUGGCCGUGUCUAGACUGCC: 0.03; for AGCCGAGCUCAACACAGCGUGGCAAAUUGGCUGUGUCUAGACUGCC: 0.12.
The same measure for AGCAGAGCUCAACUCAGGCUGUCAAACUGGCUGUGGCUAGACUGCC: 0.07; for AGCUGAGCUCAAGACAGCGUGGCAAAGUGGUUGUAGCUAGUCUGCC: 0.17; for AGCAGAGCUCAGCAGAGCGUGUCAAAGUGGCUGUGGCUAGACUGCC: 0.04.
The value for AGCAGAGCUCAUCACAACGUGGCAAAGUGGCUGUGGCUAGACUGCC was 0.13; that for AGCAGAGCUCAUCACACCGUGGCAAAGUGGCUGUGGCUAGACUGCC was 0.17.
Turning to AGCAGAGCUCAACCCAGCGUGGCAAAGUUGCUGUGGCUAGACUGCC, the self-cleavage stood at 0.19.
The same measure for AGCGUAGCUCAACACAGCGCGGCCAAUUGGGUGUGGCUAGACUGCC: 0.02.
The value for AGCCGAGCUUAACACAGCGUGGCAAAUUGGCUGUGGCGAGACUGCC was 0; that for AGCAGAGCUCAACCCAGCGUGGCAAAGUGGCUGUGGCUUGACUGCC was 0.03; that for AGCAGCGCUCAACACACCGUUGCAAAGUGGCUGUGCCUAGACUGCC was 0.05.
